Our source for the inhibition values is PubChem BioAssay AID493035 (The Scripps Research Institute Molecular Screening Center, 2011).

The term inhibition denotes the change of the read-out against control, counted positive when it falls.

“And” between values parts separate entries of the source, which are not always exact repeats. Equal entries are not always repeated. Among all 2,000 compounds or so, about 45 (2%) were called active.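 The calls were made as follows: active = inhibition above the mean of all tested compounds plus 3 SD (cut at about 49% in these data); inactive = the rest.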 The list shows a part of the results.

The experiment concerns the target Perilipin-5 (Homo sapiens) + 1-acylglycerol-3-phosphate O-acyltransferase ABHD5 (Homo sapiens) (UniProt Q00G26+Q8WTS1). The experiment can be described thus: blockers of ABHD5 binding to perilipin-5 – cell lysate, split luciferase complementation, luminescence, NIH validation set, pilot screen (AID 493035).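 Also: 0% = DMSO only wells while the 100% control is not stated.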 The following applies: split G. princeps luciferase complementation, lysates, 4 h; at 7.9 µM, stronger effect = higher value.
UniProt Q00G26, sequence (Q00G26 whole entry, looked up): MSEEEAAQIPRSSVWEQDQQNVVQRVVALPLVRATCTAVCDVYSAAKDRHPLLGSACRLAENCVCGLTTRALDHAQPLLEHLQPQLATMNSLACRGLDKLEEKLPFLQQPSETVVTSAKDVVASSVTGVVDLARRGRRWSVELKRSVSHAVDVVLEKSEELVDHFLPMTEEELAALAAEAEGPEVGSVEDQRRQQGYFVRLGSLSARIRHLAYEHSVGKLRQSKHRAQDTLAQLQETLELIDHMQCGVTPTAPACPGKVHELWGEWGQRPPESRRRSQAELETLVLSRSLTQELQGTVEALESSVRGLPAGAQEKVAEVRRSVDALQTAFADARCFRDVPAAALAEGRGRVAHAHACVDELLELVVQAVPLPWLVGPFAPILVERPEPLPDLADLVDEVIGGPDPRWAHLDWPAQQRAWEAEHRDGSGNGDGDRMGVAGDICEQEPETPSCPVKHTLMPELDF
UniProt Q00G26, sequence (Q8WTS1 whole entry, looked up): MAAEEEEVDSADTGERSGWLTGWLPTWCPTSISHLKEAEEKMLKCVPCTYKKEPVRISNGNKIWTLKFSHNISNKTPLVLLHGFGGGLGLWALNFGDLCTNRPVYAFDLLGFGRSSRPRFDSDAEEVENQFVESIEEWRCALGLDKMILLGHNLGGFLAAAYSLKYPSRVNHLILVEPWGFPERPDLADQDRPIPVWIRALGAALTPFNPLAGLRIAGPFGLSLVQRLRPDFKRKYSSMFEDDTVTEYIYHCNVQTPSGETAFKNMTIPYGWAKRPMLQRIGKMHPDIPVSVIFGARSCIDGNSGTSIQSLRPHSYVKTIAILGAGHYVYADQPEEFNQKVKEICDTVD
Regarding `O=C1c2ccccc2C(=O)C1c1ccccc1`, the inhibition was inactive: -2.73%. As for `O=Cc1ccc(OC(=O)c2cccnc2)cc1`, the inhibition is inactive: 2.3%. With `Cc1ccc(N(CC2=NCCN2)c2cccc(O)c2)cc1`, the inhibition was inactive: -7.62% and inactive: -6.05% and inactive: -5.69%. Regarding `COc1ccccc1C1(CC(=O)N2CCCCC2)CCOC(C(C)C)C1` (stereo unspecified), the inhibition was inactive: -11.5%. The same measure for `O=C(CN1CCN(Cc2ccccc2)CC1)N1CCCc2c1c(=O)oc1ccc(O)cc21`: inactive: 3.84%. In the case of `N#Cc1cc2c([nH]c1=O)CCCC2`, the inhibition was inactive: -4.72%. As to `COc1ccc(N2CCN(C(=S)NCc3ccccc3)CC2)cc1`, the inhibition is inactive: 10.2%. As to `Cn1c(=O)[nH]c(=O)c2c1ncn2CCN1CCOCC1`, the inhibition was inactive: -6.17%. For `O=C(NCCO)c1ccc(Cl)c(Cl)c1`, the inhibition was inactive: -9.12%. Regarding `CC1CCN(C(=O)Oc2ccccc2)CC1`, the inhibition is inactive: 2.98%. Take `COCCCC/C(=N\OCCN)c1ccc(C(F)(F)F)cc1`: the inhibition is inactive: -0.71%. The same measure for `C[C@]12CCC(=O)C=C1CC[C@@H]1[C@@H]2C(=O)C[C@@]2(C)[C@H]1CC[C@]2(O)C(=O)CO`: inactive: -5.02%; for `O=C(O)CCSc1nc2ccccc2s1`: inactive: 6.88%; for `CC(C)(C)C(=O)Nc1cccc(OC(F)(F)C(F)Cl)c1` (stereo unspecified): inactive: -10.7%.

With `CSCC[C@H](NC(=O)Nc1ccc(C)cc1C)C(=O)O`, the inhibition was inactive: -1.66%.

In the case of `O=C(CN1C(=O)/C(=C/c2cccc(Br)c2)SC1=S)Nc1cccnc1`, the inhibition is active: 52%.

As for `CC(C)=CC/C=C1\CCC(C(=O)O)C(C(=O)O)C1` (stereo unspecified), the inhibition is inactive: 1.14%. With `NC(=O)c1ccccc1O`, the inhibition is inactive: 3.65%. Consider `N/C(=N\OS(=O)(=O)c1ccc2ccccc2c1)c1cccnc1`, for which the inhibition was inactive: 1.91%. Turning to `Cc1ccc2[nH]c(=O)c(Cc3ccccc3)c(O)c2c1`, the inhibition is inactive: -14.1%. For the molecule `CCOC(=O)N1CCC(=C2c3ccc(Cl)cc3CCc3cccnc32)CC1`, the inhibition is inactive: 17.8%. Turning to `O=C1N=c2ccccc2=C1c1[nH]c(=S)[nH]c1O`, the inhibition is inactive: -4.74%.

With `O=C1C(O)CC2c3ccccc3CC3(CCCC3)N12` (stereo unspecified), the inhibition is inactive: 1.52%.

For the molecule `COc1ccccc1N1C(=O)C2CC(C)=C(C)CC2C1=O` (stereo unspecified), the inhibition was inactive: -0.16%. With `CCCCCCCCCC(=O)OCC(O)CO` (stereo unspecified), the inhibition is inactive: 0.57%. Under `CN1CCN(C2=Nc3ccccc3Oc3ccc(Cl)cc32)CC1` stands inactive: -17.4%.

`Cc1cccc(N2C(=O)C3C(c4ccccc4)OC4(C(=O)c5ccccc5C4=O)C3C2=O)c1` (stereo unspecified): the inhibition is inactive: 2.12%. Turning to `O=C(O)Cc1ccc(-c2ccccc2)cc1`, the inhibition is inactive: 3.16%. The same measure for `CCOC(=O)C1=C2c3ccc4ccccc4c3CC(C)(C)N2C(=O)C1=O`: inactive: 8.2%; for `C[C@@H]1C[C@H]2[C@@H]3C[C@H](F)C4=CC(=O)C=C[C@]4(C)[C@@]3(F)[C@@H](O)C[C@]2(C)[C@@]1(O)C(=O)CO`: inactive: -5.31%; for `O=C(/C=C/c1ccc(F)cc1)N1CC[C@@]2(O)CCCC[C@H]2C1`: inactive: -2.04%.

For the molecule `COc1c(O)ccc2c1CN1CCc3cc4c(cc3C1C2)OCO4` (stereo unspecified), the inhibition is inactive: 15.5%.

`CCNC1=C(Cl)C(=O)c2ccccc2C1=O`: the inhibition is inactive: -3.74%. Under `COC(=O)C1=C(C)NC(C)=C([N+](=O)[O-])C1c1ccccc1C(F)(F)F` (stereo unspecified) stands inactive: -2.75%; under `Nc1ccc(-c2nc3ncccc3o2)c(Cl)c1`, inactive: -10.8%; under `O=C1C2CC=C(Cl)CC2C(=O)N1CCc1c[nH]c2ccccc12` (stereo unspecified), inactive: -10.1%. Consider `CCOc1ccccc1Oc1coc2cc(OCC(=O)O)ccc2c1=O`, for which the inhibition is inactive: -5.58%. `CCn1cc(CN2N=C(C)CC2c2ccccc2)c(C)n1` (stereo unspecified): the inhibition was inactive: 2.34%. `CC[N+](C)(CC)CCOC(=O)C(O)(c1ccccc1)C1CCCCC1` (stereo unspecified): the inhibition was inactive: -6.34%.

Turning to `C/C=C/c1ccc(OCCCCN2CC(C)CC(C)C2)c(OC)c1` (stereo unspecified), the inhibition is inactive: -7.28%. For `O=C(Cc1ccc(Br)cc1)c1ccc(O)cc1O`, the inhibition was inactive: 12.4%. With `COc1cc(/C=C/C(=O)O)cc(S(=O)(=O)NCCCO)c1OC`, the inhibition was inactive: -2.54%. The same measure for `COc1ccc2[nH]c(=O)c3c(c2c1)OC(C)(C)C=C3`: inactive: -3.54%. In the case of `O=C(NC(=S)Nc1ccc(N2CCN(C(=O)c3ccccc3)CC2)cc1)c1cccs1`, the inhibition is inactive: 11.4%.

As to `CN(C)c1ccc(C(CN)c2c[nH]c3ccccc23)cc1` (stereo unspecified), the inhibition was inactive: 22.8%.

Take `Cc1ccc(-c2nnc(-c3ccc4c(c3)OCO4)o2)cc1`: the inhibition was inactive: -9.18%. With `COc1ccc(OC)c(-c2oc3ccccc3c(=O)c2O)c1`, the inhibition is inactive: -12.5%. The same measure for `Cc1nc2ccccc2c(=O)n1N`: inactive: -8.57%; for `N#CCC(N)=C(C#N)C#N`: inactive: -2.18%. `CCN(CC)CCOC(=O)C1(C2CCCCC2)CCCCC1`: the inhibition was inactive: -14.8%. As for `CN(C)CCCN1c2ccccc2Sc2ccc(C(F)(F)F)cc21`, the inhibition was inactive: -26.9%. Consider `Cc1ccc2c(c1)c1c(n2C)C(=O)CCC1`, for which the inhibition is inactive: 0.25%. Under `COc1ccc(C(=O)NCC2OCCc3ccccc32)cc1` (stereo unspecified) stands inactive: -9.11%; under `CCCCN(CCCC)CCCOC(=O)c1ccc(N)cc1`, inactive: -0.44%; under `O=C(NCc1ccc2c(c1)OCO2)c1ccc2c(c1)OCCO2`, inactive: -3.72%. For the molecule `O=C(O)CCCCCCCC(=O)O`, the inhibition is inactive: -1.68%. For `O=C(NC(=S)Nc1ccc2c(c1)OCCO2)c1ccccc1F`, the inhibition was inactive: -6.48%. For the molecule `NS(=O)(=O)c1cc(C2(O)NC(=O)c3ccccc32)ccc1Cl` (stereo unspecified), the inhibition is inactive: 12.6%.

Turning to `CC(=O)Nc1ccc(OS(=O)(=O)c2c(C)cc(C)cc2C)cc1`, the inhibition is inactive: -5.69%.

As to `COc1ccc(NC(=O)C2CCCN2C(=O)OC(C)(C)C)cc1` (stereo unspecified), the inhibition was inactive: -12.9%.

Turning to `CC(=O)OCC(=O)[C@@]1(O)CC[C@H]2[C@@H]3CCC4=CC(=O)CC[C@]4(C)[C@H]3[C@@H](O)C[C@@]21C`, the inhibition was inactive: 1.35%. Under `CC[N+](C)(C)c1cccc(O)c1` stands inactive: 0.72%; under `COc1ccc2oc(C)c(C(N)=O)c2c1`, inactive: -3.38%; under `CN1CCN(CC/C=C2/c3ccccc3Sc3ccc(S(=O)(=O)N(C)C)cc32)CC1`, inactive: -14.3%. The same measure for `CN1CCC(=C2c3ccccc3C=Cc3ccccc32)CC1`: inactive: -4.36%; for `Cn1cc(CN(CCO)Cc2cccs2)c(-c2cccc(Cl)c2)n1`: inactive: -9.26%; for `CCCc1cc(C(N)=S)ccn1`: inactive: 1.88%.

Turning to `Cc1ccc2[nH]c3c(c2c1)CN(C)CC3`, the inhibition is inactive: 3.97%. The same measure for `CC(C)CCOCC(=O)Nc1cccc(C(=O)O)c1`: inactive: -0.57%. With `CC(=O)c1cc2c(cc1NC(=O)c1ccco1)OCCO2`, the inhibition is inactive: -5.01%. For `CC(=O)OC(CC(=O)O)C[N+](C)(C)C` (stereo unspecified), the inhibition was inactive: -14.8%. The same measure for `CC1(C)Cc2ccccc2C(C(Cc2ccccc2)C(N)=O)=N1` (stereo unspecified): inactive: -3.97%; for `CCOC(=O)/C=C1\NC(C)(C)Cc2cc(OC)c(OC)cc21`: inactive: 1.87%. With `CC12CN3CC(C)(CN(C1)C3c1ccc(Br)cc1O)C2` (stereo unspecified), the inhibition was inactive: 4.72%. For the molecule `O=S(=O)(NCCCCCNS(=O)(=O)c1ccccc1)c1ccccc1`, the inhibition was inactive: -0.28%. In the case of `CCc1ccc(/C=C2\SC(=S)N(CCC(=O)N3CCN(C)CC3)C2=O)cc1`, the inhibition is inactive: -12.7%. For `COC(=O)c1cc(=O)c2ccc(OC)cc2o1`, the inhibition is inactive: -10.2%. Turning to `Cc1cccc(C)c1NS(=O)(=O)c1ccc(NC(=O)c2ccc(Cl)c([N+](=O)[O-])c2)cc1`, the inhibition was inactive: 29.4%. As to `COc1cc(CNCCc2ccccc2F)ccc1OCC(=O)N1CCCCC1`, the inhibition was inactive: -13.4%. Turning to `CC(O)Cn1cnc2c1c(=O)n(C)c(=O)n2C` (stereo unspecified), the inhibition was inactive: 1.51%.

Turning to `O=C(NC(=S)N1CCCCC1)c1cccnc1`, the inhibition is inactive: 0.95%. With `NS(=O)(=O)c1cc2c(cc1C(F)(F)F)NCNS2(=O)=O`, the inhibition is inactive: 1.5%. In the case of `CC(C)C12CN3CC(C(C)C)(CN(C1)C3c1ccccc1O)C2=O` (stereo unspecified), the inhibition was inactive: 0.76%. For `O=C(N/N=C\c1cc([N+](=O)[O-])ccc1N1CCOCC1)c1ccccn1`, the inhibition is inactive: 1.87%. Take `Cc1cn([C@H]2C=C[C@@H](CO)O2)c(=O)[nH]c1=O`: the inhibition was inactive: -0.42%. `CCOc1ccc(C(=O)N2CCCC2C(=O)O)cc1` (stereo unspecified): the inhibition was inactive: -2.92%.

As to `CC(=O)NS(=O)(=O)c1ccc(N)cc1`, the inhibition is inactive: 7.18%. On to `O=C1CC(c2ccc(O)cc2)Oc2cc(O)cc(O)c21` (stereo unspecified), for which the inhibition is inactive: -10.9%. Consider `Cn1cc(CN2CCCC(CO)(Cc3cccc(Cl)c3)C2)cn1` (stereo unspecified), for which the inhibition is inactive: -10.5%. Consider `CCOC(=O)COc1ccc2c(=O)c(-c3ccccc3)coc2c1`, for which the inhibition was inactive: -0.22%. For `NC(N)=NC(=O)c1nc(Cl)c(N)nc1N`, the inhibition was inactive: 5.53%. The same measure for `COc1ccc(Cc2noc(CN(C)CCN3CCc4ccccc4C3)n2)cc1OC`: inactive: -5.39%. The same measure for `CC(=O)CCc1oc2ccccc2c1-c1ccccc1`: inactive: -0.95%. For `CC(C)C12CN3CC(C(C)C)(CN(C1)C31C(=O)Nc3ccccc31)C2=O` (stereo unspecified), the inhibition was inactive: -5.17%. The same measure for `CC(=O)CSc1ncnc2c1cnn2-c1ccccc1`: inactive: 8.43%; for `CCN(CC)CC(=O)Nc1c(C)cccc1C`: inactive: -0.3% and inactive: 2.05%. For the molecule `COc1ccc(C(=O)CC2OC(=O)c3c2ccc(OC)c3OC)cc1` (stereo unspecified), the inhibition was inactive: 1.87%. Turning to `CC(=O)OCC(=O)[C@@]12OC(C)(C)O[C@@H]1C[C@H]1[C@@H]3C[C@H](F)C4=CC(=O)C=C[C@]4(C)[C@@]3(F)[C@@H](O)C[C@@]12C`, the inhibition is inactive: 1.9%. Consider `COc1ccc(/C=C\c2cc(OC)c(OC)cc2CC[N+](C)(C)C)cc1OC`, for which the inhibition is inactive: -2.45%. In the case of `c1ccc2c(CC3=NCCN3)cccc2c1`, the inhibition was inactive: -3.21%. Consider `COc1ccc(C(=O)NC(=O)NC2(C(Cl)(Cl)Cl)OCCO2)cc1`, for which the inhibition was inactive: -14.8%.
